Assay results: PubChem BioAssay AID1347120 (National Center for Advancing Translational Sciences (NCATS), 2019)
In all, about 390,000 compounds went through this assay and about 930 (0.24%) were called active. This list was built around the results that the source calls inconclusive (neither active nor inactive); the mix of calls is not that of the screen. The call rests on the fitted dose curve; in most records, active means well fitted activation curve with a large enough effect; inconclusive means small, poorly fitted or top-dose-only effect; inactive means no such curve, though single readings can be large or run the other way. Potencies of inconclusive entries are doubtful fits and often do not repeat.

Experiment: qHTS for Suppressors of FUS Proteinopathy: Primary screen using FUS-linked yeast assay; further: nearly all actives have a fitted effect of over 55% in size;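 on growth rescue (activation): plate controls were DMSO vehicle for no effect and reference control for full effect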
Conditions: S. cerevisiae FUS-expressing, OD600, 24 h; Potency: growth rescue; growth rescue (activation): at 76.6 µM (top of the series)
Outline: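 Absorbance at 600 nm, taken 24hr after compound addition, measured rescue of FUS-yeast growth at 30C. Induction used 2% galactose with seeding at OD 0.005. Controls: CP55940 from 92uM final, DMSO only.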
Potency means the concentration at half of the fitted maximal effect; tags describe the fitted curve by direction and shape.

Row | SMILES | Potency | growth rescue (activation)
1 | CCC(C#CCN1CCOCC1)(CC)OCCC#N | inconclusive: 11.2 µM [activator, partial curve, poor fit] | –
2 | NNC(=O)c1cc2c(s1)-c1cc(Cl)ccc1SC2 | inconclusive: 3.98 µM [activator, full curve] | –
3 | COc1ccc(CCNc2ccc(C(=O)O)cc2[N+](=O)[O-])cc1OC | – | inactive: -1.72%
4 | C/C=C/C1=CC(=O)C[C@H](c2ccc(F)cc2)C1 | – | inactive: -7.29%
5 | COc1ccc(NC(=O)c2ccc3c(SCC(=O)O)c4c(nc3c2)CCCC4)c(OC)c1 | inconclusive: 35.5 µM [activator, single point] | –
6 | CCNC(=O)CSc1nnc(C2CC2)n1-c1ccccc1 | – | inactive: -13.2%
7 | COC(=O)c1ccc2nc(-c3cccc(Br)c3)c(Cc3ccc(OC)cc3C)n2c1 | inconclusive: 44.7 µM [activator, single point] | –
8 | CCSc1nnc(NC(=O)CSc2nnc(Cc3cccn3C)n2-c2ccc(C)cc2)s1 | inconclusive: 50.1 µM [activator, single point] | –
9 | Cc1cccc(-c2nc3c4ccccc4n(Cc4cccc(Cl)c4)c(=O)n3n2)c1 | – | inactive: -12.5%
10 | C=CC[C@@H](CC(=O)NCCO)C(=O)NC[C@H](OC(=O)[C@@H](CC=C)CC(=O)OC(C)(C)C)c1ccccc1 | inconclusive: 20 µM [activator, partial curve] | –
11 | Nc1c(C(=O)NCc2ccc(Cl)cc2)sc2nc3c(c(C(F)(F)F)c12)CCC3 | inconclusive: 35.5 µM [activator, partial curve, poor fit] | –
12 | O=C(c1ccc2c(c1)N(Cc1c(F)cccc1Cl)C(=O)c1ccccc1S2)N1CCOCC1 | inconclusive: 15.8 µM [activator, partial curve, poor fit] | –
13 | CCOC(=O)N1CCN(Cc2nc3cc(NC(=O)C(C)C)ccc3n2C(C)C)CC1 | – | inactive: -15.8%
14 | O=C(CN1c2ccccc2S(=O)(=O)c2ccccc21)Nc1ccccc1Cl | – | inactive: 40.4%
15 | COc1ccccc1N(CC(=O)Nc1ccc2c(c1)OCO2)S(=O)(=O)c1ccc(C)cc1 | inconclusive: 25.1 µM [activator, partial curve, poor fit] | –
16 | C[C@]12c3[nH]c4ccccc4c3CCN1C(=O)C(CC(=O)NCC13CC4CC(CC(C4)C1)C3)C[C@@H]2C(=O)N1CCCCC1 (stereo not given in full) | inconclusive: 20 µM [activator, partial curve, poor fit] | –
17 | O=C(Nc1ccc(Oc2ccccc2)cc1)C1CCCN1S(=O)(=O)c1cccc2cccnc12 (stereo not given) | inconclusive: 14.1 µM [activator, partial curve] | –
18 | CCCOc1ccc(-c2nonc2NC(=O)c2oc3ccc(Cl)cc3c2C)cc1OCCC | – | inactive: 6.89%
19 | COc1cccc2sc(N(CCCN(C)C)C(=O)C(c3ccccc3)c3ccccc3)nc12 | inconclusive: 39.8 µM [activator, single point] | –
20 | Cc1c(C(=O)N(C)C2CCCCC2)sc2ncnc(N3CCN(c4ccccc4)CC3)c12 | inconclusive: 25.1 µM [activator, single point] | –

Row | SMILES | Potency | growth rescue (activation)
21 | CCC(COC(=O)Nc1cccc(C)c1C)NC(=O)OCC(C)C (stereo not given) | – | inactive: 17.1%
22 | Cc1nn(C)c2c1c(C(F)(F)F)cc(=O)n2C(C)C(=O)NCCc1ccccc1 (stereo not given) | – | inactive: 36.9%
23 | Brc1ccc(C2=CC(c3cccs3)n3ncnc3N2)cc1 (stereo not given) | inconclusive: 50.1 µM [activator, partial curve, poor fit] | –
24 | CCOC(=O)C1=C(C)NC(=O)NC1c1cn(-c2ccccc2)nc1-c1ccc(OC(C)C)cc1 (stereo not given) | inconclusive: 35.5 µM [activator, single point] | –
25 | C=CCN(CC=C)c1nc2ccccc2nc1C(C#N)C(=O)OCCOC (stereo not given) | inconclusive: 4.47 µM [activator, full curve] | –
26 | Cc1cc(C)c(O)c(-c2cc(C(=O)Nc3ccc(S(=O)(=O)N4CCOCC4)cc3)[nH]n2)c1 | inconclusive: 15.8 µM [activator, partial curve] | –
27 | Cc1cc(C)c2nc(NNC(=O)c3ccc(S(=O)(=O)N4CCCCC4)cc3)sc2c1 | inconclusive: 35.5 µM [activator, single point] | –
28 | O=C1Nc2ccccc2/C1=C/C(=O)c1cccs1 | – | inactive: -3.69%
29 | COc1ccc(CCNC(c2ccc(F)cc2)c2nnc(-c3ccccc3Cl)o2)cc1OC (stereo not given) | inconclusive: 28.2 µM [activator, single point] | –
30 | COc1ccc(N(CC(=O)Nc2cccc(C(C)=O)c2)S(=O)(=O)c2ccccc2)c(OC)c1 | inconclusive: 35.5 µM [activator, partial curve] | –
31 | CCn1c(SCc2nc3scc(-c4ccccc4)c3c(=O)[nH]2)nnc1-c1cccs1 | inconclusive: 31.6 µM [activator, partial curve, poor fit] | –
32 | COc1ccc(-c2c3c(=O)n(C)c(=O)n(C)c3c3n2-c2ccccc2NC3c2ccc(O)cc2O)cc1 (stereo not given) | inconclusive: 50.1 µM [activator, single point] | –
33 | CCCS(=O)(=O)NC(=O)C1(C)CCN(C(=O)Cc2ccc3ccccc3c2)C1 (stereo not given) | – | inactive: -6%
34 | O=C(NCCc1c[nH]c2ccccc12)OCc1cn(Cc2ccc(C(F)(F)F)cc2)nn1 | inconclusive: 11.2 µM [activator, full curve, poor fit] | –
35 | COc1ccc(CCN2C(=O)N(c3ccc(C)cc3)C(=O)C2CC(=O)Nc2ccc(F)cc2)cc1 (stereo not given) | inconclusive: 39.8 µM [activator, single point] | –
36 | Cc1nn(C(=O)COc2ccccc2Br)c(C)c1Sc1ccccc1 | – | inactive: -1.82%
37 | C#CCOCCOCCOCCNc1nc(N2CCN(C(=O)C([C@@H](C)CC)n3cc(C(N)COC(=O)C(F)(F)F)nn3)CC2)nc(N2CCN(C(=O)[C@H](Cc3ccc(O)cc3)n3cc(C(N)[C@H](C)CC)nn3)CC2)n1 (stereo not given in full) | inconclusive: 10 µM [activator, partial curve] | –
38 | COc1ccc(CN2C(=O)N(c3ccc(F)cc3)C(=O)C2CC(=O)Nc2cc(OC)cc(OC)c2)cc1 (stereo not given) | – | inactive: 5.75%
39 | Cc1sc2nc[nH]c(=O)c2c1-c1ccc(F)cc1 | inconclusive: 7.94 µM [activator, single point] | –
40 | CC(CNC(=O)c1cc(-c2ccccc2)n[nH]1)c1ccccc1 (stereo not given) | – | inactive: -0.344%
